In all, about 110,000 compounds were measured (“z-score”: median about -0.1, highest 2% from about 2 on). Some of the results follow. Active and inactive are the calls of the source.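 How the source made its calls: active means z-score in the third read window above 3 or below -3; inactive means the rest.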

In the test the target is Metabotropic glutamate receptor 8 (Rattus norvegicus) (UniProt P70579). In words: mGluR8 Gi/Go-coupled signaling modulation – cell-based, rat, thallium flux, HTS, primary screen (AID 488969). The conditions noted are these: HEK293 rat mGluR8, GIRK (G protein-gated inwardly rectifying potassium channel) thallium flux, FluoZin2; at 10 µM; stronger effect = higher value; submaximal glutamate (EC20) added with thallium.
Sequence of UniProt P70579 (P70579 whole entry, looked up): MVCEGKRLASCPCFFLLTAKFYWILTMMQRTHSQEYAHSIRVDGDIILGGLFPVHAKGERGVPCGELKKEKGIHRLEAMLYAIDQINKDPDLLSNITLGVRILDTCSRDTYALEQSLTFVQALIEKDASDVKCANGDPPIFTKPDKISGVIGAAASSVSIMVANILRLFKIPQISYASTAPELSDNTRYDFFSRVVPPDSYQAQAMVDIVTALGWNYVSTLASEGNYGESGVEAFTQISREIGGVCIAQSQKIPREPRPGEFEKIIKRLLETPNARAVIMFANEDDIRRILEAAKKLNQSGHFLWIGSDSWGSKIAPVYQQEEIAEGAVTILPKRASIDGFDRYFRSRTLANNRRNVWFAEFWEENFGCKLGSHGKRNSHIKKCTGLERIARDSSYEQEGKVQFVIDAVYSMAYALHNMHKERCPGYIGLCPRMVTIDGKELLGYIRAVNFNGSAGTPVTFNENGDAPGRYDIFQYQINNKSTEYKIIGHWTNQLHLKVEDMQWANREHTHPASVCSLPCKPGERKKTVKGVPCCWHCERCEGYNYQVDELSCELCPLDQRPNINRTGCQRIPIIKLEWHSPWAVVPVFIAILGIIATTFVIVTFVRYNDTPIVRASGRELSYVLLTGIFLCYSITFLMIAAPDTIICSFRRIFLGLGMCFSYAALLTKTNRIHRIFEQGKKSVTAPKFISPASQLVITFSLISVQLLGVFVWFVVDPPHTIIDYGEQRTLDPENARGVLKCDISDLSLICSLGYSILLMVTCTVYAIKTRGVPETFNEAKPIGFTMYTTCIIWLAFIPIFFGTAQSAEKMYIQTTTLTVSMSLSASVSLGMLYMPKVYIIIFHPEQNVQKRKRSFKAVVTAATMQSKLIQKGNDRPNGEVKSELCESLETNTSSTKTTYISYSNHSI
For `O=C(CSc1ccc2ccccc2c1)Nc1ccncc1`, the z-score is -0.386.

For the compound `CCOC(=O)c1sc(NC(=O)c2cccnc2)nc1C`, the z-score is -0.674.

For `O=C(NCc1ccc2c(c1)OCO2)c1ccc2c(c1)C(=O)N(CC1CCCO1)C2=O` (configuration not stated), the z-score came out at 0.355.

The compound `O=C(Nc1ccc2oc(-c3ccc(Cl)c(Cl)c3)nc2c1)c1ncn[nH]1` had a z-score of -0.0214.

In the case of `O=C(Nc1cc(Cl)cc(Cl)c1)C1CCC(=O)N1Cc1ccccc1Cl` (configuration not stated), the z-score is -0.359.

For `CN1C(=S)SC(C)(NO)C1(C)C` (configuration not stated), the z-score was determined as 0.681.

`COc1ccc(-c2noc(COc3ccc4c(c3)OCO4)n2)cc1` displayed a z-score of -1.18.

Regarding `S=C(NCC1CCCCC1)Nc1ccc(Oc2ccccc2)cc1`, the z-score was 0.317.

As for `Cc1[nH][nH]c(=O)c1C(c1ccc(-c2ccc(Cl)cc2)o1)c1c(C)[nH][nH]c1=O`, the z-score was -0.559.

On to `O=C1C2CCCN2C(c2ccccc2)N1c1ccc(F)cc1` (configuration not stated), for which the z-score is -0.142.

In the case of `COC(=O)/C=C1\S/C(=N/N=C/c2ccccc2)NC1=O`, the z-score is -0.497.

For the compound `CCOC(=O)CN1C(=O)C(C)(C)Oc2ccc(C(=O)Nc3ccccc3)cc21`, the z-score was -0.637.

Consider `CNC(=O)/C=C1\NC(C)(C)Cc2c1ccc1ccccc21`, for which the z-score is -1.06.

`CCNC(=S)NNC(=O)c1cccc(Br)c1` showed a z-score of 0.0953.

Take `COc1cc(SC)ccc1C(=O)Nc1ccon1`: the z-score was -0.218.

Regarding `Cn1c(=O)[nH]c(=O)c2c1nc(N1CCN(c3cccc(Cl)c3)CC1)n2CCCc1ccccc1`, the z-score was -0.12.

In the case of `CCCN(CCC)CC(O)Cn1cc(/C=C/C(=O)c2cccs2)c2ccccc21` (configuration not stated), the z-score was active: -3.19.

In turn, `CCC(C)(C)NC(=O)Cc1ccccc1OC` showed a z-score of -0.0159.

`Cc1ccc(C(=O)Cn2nnc(-c3ccccc3-n3cnnn3)n2)cc1`: the z-score is 0.254.

The compound `C(=N\N1CCN(Cc2cccc3ccccc23)CC1)/c1ccco1` returned a z-score of -0.0601.

With `Cc1nn(C)c(Oc2ccccc2)c1CCNS(=O)(=O)c1ccccc1`, the z-score was -0.194.

`O=C(C1CC1)N1CCc2cc(S(=O)(=O)N3CCCc4ccccc43)ccc21` displayed a z-score of -0.2.

Take `Cc1cccc(NC(=O)c2ccc(OCC3CCCO3)cc2)c1C` (configuration not stated): the z-score is -0.269.

In turn, `O=C1CCC(c2ccccc2)N1C(=O)c1cccnc1` (configuration not stated) registered a z-score of -0.511.

The compound `CC(=O)Nc1ccc(S(=O)(=O)Nc2cc(C)c(-n3nc4ccccc4n3)cc2O)cc1` came in with a z-score of 0.525.

`COc1ccc(-c2cc(C(F)(F)F)nc(N3CCN(Cc4ccccc4)CC3)n2)cc1OC` yielded a z-score of 0.105.

As to `CCN(CC)C(=O)c1scc2c1OCCO2`, the z-score was -0.422.

`NC1=NN(c2cccc(C(=O)O)c2)C(=O)C1` registered a z-score of -0.0661.

`COc1ccc(Br)cc1CN1CCN(C(=O)c2cccc(OC)c2OC)CC1` showed a z-score of 0.185.

Regarding `CC(C)/C=N\NC(=O)CCCCC(=O)N/N=C/C(C)C`, the z-score was -0.357.

In turn, `COc1cc(NC(=O)c2cccs2)ccc1NC(=O)c1ccco1` came in with a z-score of -1.62.

Consider `CCOc1ccccc1-c1nc(C(N)=O)c2[nH]c(=O)n(-c3ccccc3)c2n1`, for which the z-score came to 0.0908.

For the origin of these results see PubChem BioAssay AID488969 (Vanderbilt High Throughput Screening Facility, 2010).
